Experimental data as given in the supplement of paper PMC10126150.
Sequences with one replicate were seen in a single cluster, so their values are uncertain.

Tested on: ATP
Assay: switch fluorescence ratio, 500 uM ATP over buffer (Cy3 cluster intensity, sum of 5 cycles each) (fold (ratio)); higher = stronger signal-on switching upon ATP binding; sequences stand for … in TCGTCGGCAGCGTCAGATGTGTATAAGAGACAGTTTTTTTTTTTTTTTTTTTTTTTTT…TC
Details: aptamer strand: ATP DNA aptamer (quencher-CACCTGGGGGAGTATTGCGGAGGAAGG + anchor), 100 nM annealed; ATP concentration: 500 uM; one replicate
Procedure, shortened: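 The quencher-labelled ATP aptamer, at 100 nM, was annealed to Cy3-labelled switching-strand clusters on a modified Illumina MiSeq flow-cell. The clusters were imaged in selection buffer, then after 15 min with 500 uM ATP at 22 °C, and this buffer/ATP cycle ran five times with NaOH stripping and re-annealing between runs. Per-cluster fluorescence ratios, summed target-cycle over summed buffer-cycle Cy3 intensity, were averaged per switch-domain sequence. Clusters outside 100-1000 RFU were excluded.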
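Note: ATP exposure 15 min at 22 °C before imaging.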

Sequence | switch fluorescence ratio
AGCCAAAGTG | 1.01
CTGTTTATTC | 1.05
TAGGATTAGT | 0.999
TGCAGGTG | 2.26
TTAGTGTGCC | 0.959
AATTAGATGA | 0.961
ACGTTACGG | 1.62
CTCATCAAGT | 1.03
CGTACATGGC | 1.09
CCAGAATGTT | 0.961
ATAGTTGTTA | 1.04
CAGATTGGCG | 1.12
GTTTGGCGGG | 1.02
AAATGCCCTC | 0.993
GGTACGCAT | 1.38
ATACAATGAG | 1.01
TGGCAGTCGT | 0.942
GCGTATATTC | 1.07
TCCAGCTTCT | 1.06
GATCTGTTTG | 1.01
ACCTTCTGCA | 1.39
TCTTTGGCAA | 2.42
TTGCGTAATC | 1.2
TAACTGGTCC | 1.05
AGATGGGATG | 0.991

Sequence | switch fluorescence ratio
TAATAGAAGA | 0.942
AGGCAGGGCG | 1
GTGCGGCTAC | 1.2
CGGGTGCCAG | 1.19
CGGGTCCCGG | 0.939
CACTTGTGAT | 0.978
TTCTTGTGCT | 0.97
TAAATTGACC | 1
AACACTTCGC | 1.16
CTACATTAAT | 1.07
CCGCTCCCCT | 3.26
TTAGCTGTAA | 1.09
ACGGCATGTG | 1.05
AAATTAAACA | 0.995
TTTGAAACCT | 2.67
ACGTATTTGC | 1.16
CCGAATAATG | 1.08
CACGGCCGGG | 1.02
GATCGTGGCT | 0.99
TCATGCACCG | 1.01
GTGAGGGAGA | 1.02
CTTAAGATAG | 1.1
AATTGCGTTA | 0.975
GAGGACGTCT | 1.07
AAATCCTTCG | 1.91

Sequence | switch fluorescence ratio
CTAAAGTGGT | 0.968
CTGTGGGTGA | 0.977
GAGCTTGGTT | 0.998
CATAATCTGG | 0.996
ATACCTGAAG | 1.07
GGCTGTTGCT | 0.95
ACGTGTCTGG | 0.987
GACTTAACGG | 1.03
TGTGCGCATT | 1.02
GTGTGATCGT | 0.953
CCCGCCCGTT | 1.01
CGTCCTCGGT | 1
CTTTCGATGG | 1
GCGCGTATAA | 1.03
CGAAGTAGGA | 1.01
GAATGCAAGA | 1.21
CATTTTCGCT | 0.968
ACTCCTAACG | 1.16
CGAAGTATGA | 1.01
GCTTGGTTGC | 0.96
TGGGAAAGTG | 0.98
GGTTTTCAG | 1.03
CCACGTGAG | 1.07
TTCCGCGAAA | 6
GGTTATAAAG | 0.976

Sequence | switch fluorescence ratio
AGGGAGACCT | 1.13
CCGGCCTCTA | 1.18
CAAGGTGTTG | 1.02
TGATTAAAAG | 0.948
TATGGCTCAG | 1.03
CGCCCAGTTA | 1.09
GTCAAAATAT | 0.993
GCCATGATGC | 1.04
AGCCACCGGC | 1.03
GGGCCAGTAG | 1
CGATGGTAA | 0.99
TTGTTGGCAG | 1.04
TCGCCTCGT | 1.12
TCTGAGGGGT | 1.02
TTTCACCGGT | 1.02
GCATTCGGAC | 1.22
TTACTGTTCG | 1.04
AATTGAGCTA | 1.03
TATGACCACA | 1.04
CGAGGATGCT | 0.974
GCAGCGAGGT | 1.13
AACCGCTGAG | 1.24
GAAGACCGCG | 0.998
CGGATGGTTT | 1.42
GTGATATGAA | 1.01
